Experimental data: the antibiotic and cytotoxicity screens of Wong et al. (2023)
This is one part of the list.

Columns and labels:
HSkMC = human skeletal muscle cells; assay: cytotoxicity call (relative viability < 0.9); settings: 10 µM
HepG2 = assay: cytotoxicity call (relative viability < 0.9); settings: 10 µM
S. aureus RN4220 = assay: growth inhibition call (relative growth <= 0.2); settings: 50 µM

CCCNC(=O)N1C[C@@H](O)COC[C@H]2O[C@@H](CC(=O)NCc3ccncn3)CC[C@@H]21
inactive: cytotoxicity call (HSkMC) | cytotoxicity call (HepG2) | growth inhibition call (S. aureus RN4220)

CC(C)NC(=O)Nc1ccc2c(c1)CC(=O)N([C@@H](C)CO)C[C@@H](C)[C@@H](CN(C)Cc1ccc(-c3ccccc3)cc1)O2
inactive: cytotoxicity call (HSkMC) | cytotoxicity call (HepG2) | growth inhibition call (S. aureus RN4220)

COc1ccc(C#Cc2ccc3c(c2)O[C@@H](CN(C)S(=O)(=O)c2ccccc2F)[C@@H](C)CN([C@H](C)CO)S3(=O)=O)cc1
inactive: cytotoxicity call (HSkMC) | cytotoxicity call (HepG2) | growth inhibition call (S. aureus RN4220)

CN1CCCN=C1C=Cc1cccs1.O=C(O)c1cc2ccccc2c(Cc2c(O)c(C(=O)O)cc3ccccc23)c1O
inactive: cytotoxicity call (HSkMC) | cytotoxicity call (HepG2) | growth inhibition call (S. aureus RN4220)

Cn1cnc(CCNC(=O)C[C@@H]2CC[C@H]3[C@@H](COC[C@@H](O)CN3C(=O)C3CC3)O2)c1
inactive: cytotoxicity call (HSkMC) | cytotoxicity call (HepG2) | growth inhibition call (S. aureus RN4220)

CC(=O)NCCCC[C@@H]1NC(=O)[C@H]2C[C@@H](C(=O)NCCCCCCN(C)C)[C@@H](c3ccc(O)cc3)N2C1=O
inactive: cytotoxicity call (HSkMC) | cytotoxicity call (HepG2) | growth inhibition call (S. aureus RN4220)

C=CCN([C@@H](Cc1ccccc1)[C@@H](O)c1cn(CCCCCCNC(=O)C(=O)NC)nn1)S(=O)(=O)c1ccccc1[N+](=O)[O-]
inactive: cytotoxicity call (HSkMC) | cytotoxicity call (HepG2) | growth inhibition call (S. aureus RN4220)

CC(C)NC(=O)N(C)C[C@@H]1OCCCC[C@@H](C)Oc2ccc(NC(=O)Nc3ccc(F)cc3)cc2C(=O)N([C@@H](C)CO)C[C@H]1C
inactive: cytotoxicity call (HSkMC) | cytotoxicity call (HepG2) | growth inhibition call (S. aureus RN4220)

CC(C)NC(=O)N(C)C[C@H]1Oc2ccc(NC(=O)Cn3cnnn3)cc2CC(=O)N([C@@H](C)CO)C[C@H]1C
inactive: cytotoxicity call (HSkMC) | cytotoxicity call (HepG2) | growth inhibition call (S. aureus RN4220)
